Source: the supplement of paper PMC4604168 (melanoma cell lines)
The list shows a part of the results. Repeats are few or missing, and single values can be far off.

Tests used:
Experiment in all cases: cell count relative to DMSO control; melanoma cells; higher = more viable cells
Details in all cases: library dose: standard library concentration; 72 h
G361 = system: G361
IPC-298 = system: IPC-298
IST-MEL1 = system: IST-MEL1
LB2518-MEL = system: LB2518-MEL
LOXIMVI = system: LOXIMVI
MEL-HO = system: MEL-HO
MZ2-MEL = system: MZ2-MEL
MeWo = system: MeWo
RPMI7951 = system: RPMI7951
RVH-421 = system: RVH-421
SkMel28 = system: SkMel28
SkMel2 = system: SkMel2
SkMel30 = system: SkMel30
SkMel5 = system: SkMel5
UACC257 = system: UACC257
UACC62 = system: UACC62
WM115 = system: WM115
WM1716 = system: WM1716
WM1745 = system: WM1745
WM3526 = system: WM3526
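Also: cells treated in 1,536-well plates, then fixed and DAPI-stained, with nuclei counted from automated high-throughput microscope images.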

| Structure (SMILES) | cell count (G361) [%] | cell count (IPC-298) [%] | cell count (IST-MEL1) [%] | cell count (LB2518-MEL) [%] | cell count (LOXIMVI) [%] | cell count (MEL-HO) [%] | cell count (MZ2-MEL) [%] | cell count (MeWo) [%] | cell count (RPMI7951) [%] | cell count (RVH-421) [%] | cell count (SkMel28) [%] | cell count (SkMel2) [%] | cell count (SkMel30) [%] | cell count (SkMel5) [%] | cell count (UACC257) [%] | cell count (UACC62) [%] | cell count (WM115) [%] | cell count (WM1716) [%] | cell count (WM1745) [%] | cell count (WM3526) [%] |
| --- | --- | --- | --- | --- | --- | --- | --- | --- | --- | --- | --- | --- | --- | --- | --- | --- | --- | --- | --- | --- |
| Cc1cc(SCc2sc(-c3ccc(C(F)(F)F)c(F)c3)nc2C)ccc1OCC(=O)O + C/C(O)=C(\C#N)C(=O)Nc1cc(Br)ccc1Br [LFM-A13] (first compound 10 µM, partner dose 10 µM) | 92.6 | 97 | 86.3 | 91 | 100 | 93.9 | 81.4 | 92.6 | 114 | 131 | 74.2 | 106 | 94.6 | 64.6 | 88 | 95.1 | 79.1 | 96 | 95.1 | 109 |
| CCCCCCCCCCCCCCCCCCOP(=O)([O-])OC1CC[N+](C)(C)CC1 [Perifosine] + C[As](C)SC[C@H](NC(=O)CC[C@H](N)C(=O)O)C(=O)NCC(=O)O [Darinaparsin] (first compound 2 µM, partner dose 2 µM) | 86.6 | 91.3 | 91.6 | 95.4 | 86.9 | 103 | 96.9 | 75.4 | 22.8 | 86.2 | 78.3 | 80.8 | 75.8 | 73.8 | 84.3 | 80.8 | 77.9 | 71.8 | 85.5 | 70.2 |
| CN(c1ncccc1CNc1nc(Nc2ccc3c(c2)CC(=O)N3)ncc1C(F)(F)F)S(C)(=O)=O + C[As](C)SC[C@H](NC(=O)CC[C@H](N)C(=O)O)C(=O)NCC(=O)O [Darinaparsin] (first compound 0.4 µM, partner dose 2 µM) | 74.2 | 85.8 | 79.9 | 78.3 | 101 | 81.5 | 79.4 | 88.1 | 91.7 | 71.9 | 59.5 | 86.7 | 99.5 | 53.2 | 69.5 | 55 | 77.2 | 83.6 | 66.9 | 92.2 |
| Cc1cn(-c2cc(NC(=O)c3ccc(C)c(Nc4nccc(-c5cccnc5)n4)c3)cc(C(F)(F)F)c2)cn1 [nilotinib] + C[As](C)SC[C@H](NC(=O)CC[C@H](N)C(=O)O)C(=O)NCC(=O)O [Darinaparsin] (first compound 1 µM, partner dose 2 µM) | 67.7 | 90.2 | 76.8 | 79.4 | 118 | 81.7 | 79 | 80 | 91.3 | 50.8 | 87.8 | 89.3 | 87.6 | 63.9 | 88.6 | 70.8 | 79.8 | 78.2 | 75.9 | 69 |
| Cc1cc(SCc2sc(-c3ccc(C(F)(F)F)c(F)c3)nc2C)ccc1OCC(=O)O + O=C(O)C(=O)Nc1sc2c(c1C(=O)O)CCNC2 [TCS401] (first compound 10 µM, partner dose 8.33333 µM) | 87.9 | 113 | 100 | 94.1 | 113 | 91.3 | 110 | 103 | 83.6 | 90.7 | 75.8 | 101 | 118 | 100 | 89.7 | 113 | 104 | 102 | 78.7 | 89.2 |
| O=C(O)c1ccc(-c2c[nH]c3ncc(-c4ccccc4)cc23)cc1C1CCCC1 + Cc1cc(SCc2sc(-c3ccc(C(F)(F)F)c(F)c3)nc2C)ccc1OCC(=O)O [GW0742] (first compound 0.8 µM, partner dose 10 µM) | 71.2 | 85.9 | 75.5 | 95.4 | 87.8 | 72.1 | 84 | 84.7 | 75.1 | 90.4 | 58.7 | 79.6 | 93.5 | 77.8 | 77 | 93.1 | 109 | 95.9 | 105 | 94 |
| COc1cc2c(Oc3ccc4[nH]c(C)cc4c3F)ncnc2cc1OCCCN1CCCC1 [cediranib] + C/C(O)=C(\C#N)C(=O)Nc1cc(Br)ccc1Br [LFM-A13] (first compound 2 µM, partner dose 10 µM) | 89.1 | 91.5 | 129 | 73.6 | 56.3 | 106 | 101 | 103 | 110 | 94.8 | 86.9 | 95.8 | 88.3 | 56.5 | 108 | 95.1 | 110 | 108 | 87.1 | 83.4 |
| O=C(Nc1ccccc1)c1cc([N+](=O)[O-])ccc1Cl + C/C(O)=C(\C#N)C(=O)Nc1cc(Br)ccc1Br [LFM-A13] (first compound 10 µM, partner dose 10 µM) | 96.8 | 99.2 | 94.6 | 98.8 | 116 | 88.3 | 85.3 | 70.2 | 74 | 77 | 61.8 | 87.4 | 78.3 | 62.3 | 84.2 | 85.9 | 71.5 | 86.2 | 78.9 | 74.2 |
| Cn1cnc2c(F)c(Nc3ccc(Br)cc3Cl)c(C(=O)NOCCO)cc21 [selumetinib] + C[As](C)SC[C@H](NC(=O)CC[C@H](N)C(=O)O)C(=O)NCC(=O)O [Darinaparsin] (first compound 0.075 µM, partner dose 2 µM) | 56.6 | 49.9 | 83.5 | 47.3 | 96.9 | 83.9 | 71.4 | 58.7 | 181 | 72.9 | 72.1 | 46.4 | 60.3 | 61.9 | 109 | 70.1 | 81 | 64.4 | 77.2 | 69.2 |
| C[C@@H](N)c1ccc(C(=O)Nc2ccnc3[nH]ccc23)cc1 + C[As](C)SC[C@H](NC(=O)CC[C@H](N)C(=O)O)C(=O)NCC(=O)O [Darinaparsin] (first compound 2 µM, partner dose 2 µM) | 119 | 111 | 98.8 | 144 | 89.4 | 69.5 | 63.7 | 75.5 | 45.2 | 51.2 | 115 | 125 | 96.4 | 54.1 | 48.4 | 76.5 | 88.9 | 39 | 65.4 | 83.4 |
| N#Cc1c(O)c2c(-c3ccc(-c4ccccc4O)cc3)csc2[nH]c1=O + C/C(O)=C(\C#N)C(=O)Nc1cc(Br)ccc1Br [LFM-A13] (first compound 10 µM, partner dose 10 µM) | 82.6 | 93.1 | 93.6 | 98 | 103 | 91.4 | 91.7 | 84.7 | 78.3 | 95.9 | 78.4 | 87.5 | 94.7 | 95.2 | 109 | 104 | 97.3 | 94.8 | 80.9 | 75.8 |
| Cc1ccc(NC(=O)c2cccc(N(C)C)c2)cc1NC(=O)c1ccc(O)cc1 + O=C(Oc1ccc([N+](=O)[O-])cc1)N1CCC(C(O)(c2ccc3c(c2)OCO3)c2ccc3c(c2)OCO3)CC1 [JZL184] (first compound 10 µM, partner dose 5 µM) | 104 | 96.6 | 96.5 | 126 | 119 | 88.9 | 81.9 | 101 | 74.3 | 102 | 101 | 98.7 | 98.1 | 100 | 109 | 91.7 | 105 | 99.2 | 78.1 | 80.3 |
| COc1ccc(-c2ccc3c(N4CCOCC4)nc(N4C[C@@H](C)O[C@@H](C)C4)nc3n2)cc1CO + C/C(O)=C(\C#N)C(=O)Nc1cc(Br)ccc1Br [LFM-A13] (first compound 0.1 µM, partner dose 10 µM) | 87.3 | 75.4 | 80 | 86.4 | 79.9 | 87.2 | 83.1 | 80.5 | 65.1 | 75.1 | 55.3 | 80.7 | 80.7 | 60.4 | 94.2 | 55.2 | 68.4 | 109 | 74.9 | 81.2 |
| COc1cc([C@@H]2c3cc4c(cc3[C@@H](O[C@@H]3O[C@@H]5CO[C@@H](C)O[C@H]5[C@H](O)[C@H]3O)[C@H]3COC(=O)[C@H]23)OCO4)cc(OC)c1O [etoposide] + C[As](C)SC[C@H](NC(=O)CC[C@H](N)C(=O)O)C(=O)NCC(=O)O [Darinaparsin] (first compound 0.1 µM, partner dose 2 µM) | 71.1 | 70.4 | 103 | 76.4 | 104 | 89.2 | 80.5 | 72.3 | 99.1 | 93.8 | 92.4 | 84.5 | 79.8 | 62.2 | 81.9 | 58.2 | 75.5 | 57.3 | 94.9 | 85.7 |
| Nc1cccc2c1CN(C1CCC(=O)NC1=O)C2=O (stereo not given) [lenalidomide] + Cc1cc(SCc2sc(-c3ccc(C(F)(F)F)c(F)c3)nc2C)ccc1OCC(=O)O [GW0742] (first compound 5 µM, partner dose 10 µM) | 106 | 101 | 88.2 | 102 | 115 | 105 | 119 | 101 | 90 | 76.9 | 89.1 | 91.6 | 101 | 124 | 88.7 | 120 | 74.6 | 110 | 87.1 | 90.8 |
| NCC(=O)Nc1ccc(-n2nc(C(F)(F)F)cc2-c2ccc3c(ccc4ccccc43)c2)cc1 + O=C(Oc1ccc([N+](=O)[O-])cc1)N1CCC(C(O)(c2ccc3c(c2)OCO3)c2ccc3c(c2)OCO3)CC1 [JZL184] (first compound 5 µM, partner dose 5 µM) | 86 | 61.1 | 90.5 | 97 | 99 | 91.5 | 112 | 80.3 | 82.1 | 89.4 | 18 | 53.4 | 47.7 | 58.4 | 103 | 70 | 93.7 | 72.6 | 88.3 | 55.5 |
| Cc1ccc(Nc2nccc(N(C)c3ccc4c(C)n(C)nc4c3)n2)cc1S(N)(=O)=O [Pazopanib] + C[C@]12O[C@H](C[C@]1(O)CO)n1c3ccccc3c3c4c(c5c6ccccc6n2c5c31)CNC4=O [Lestaurtinib] (first compound 2 µM, partner dose 0.02 µM) | 71.3 | 62.1 | 101 | 56.5 | 106 | 85.1 | 92.7 | 63.5 | 66.7 | 81.5 | 52.2 | 90.9 | 80.1 | 65.1 | 88.6 | 56.1 | 82.4 | 83.4 | 72.8 | 76.4 |
